Assay results from publication PMC8350011, “Interactions between semaphorins and plexin–neuropilin receptor complexes in the membranes of live cells” (The Journal of Biological Chemistry, 2021).

Target: the molecule itself
Assay: PIE-FCCS (pulsed-interleaved excitation fluorescence cross-correlation spectroscopy); single live Cos-7 cells co-expressing eGFP and mCherry fusions, peripheral membrane, no exogenous ligand; 85 to 1245 molecules/μm^2; fraction correlated (fc): median below 0.09 monomer, 0.09-0.17 dimer, above 0.17 higher oligomers (homotypic)

Protein	median fraction correlated (fc)	stoichiometry N
neuropilin-1 (receptor, Two constructs (eGFP fusion in pEGFP-N1, mCherry fusion in pmCh-N1), co-expressed for the homotypic measurements; Nrp1-mCh was used with the plexin-eGFP constructs; The N1 vectors probably put the fluorescent protein at the C-terminus; also called Nrp1; Nrp1-eGFP; source: Cos-7, transiently transfected, in the membrane of live cells) not shown	0.14	–
plexin A4 (receptor, Two constructs (eGFP and mCherry fusions); The N1 vectors probably put the fluorescent protein at the C-terminus; also called plexin A4-eGFP; plexin A4-mCh; source: Cos-7, transiently transfected, in the membrane of live cells) not shown	0.14	2
